Measurements as given in the supplement of paper PMC12230231.
± gives the standard deviation of the averaged measurements. Restriction of a single-cycle SIVsab GFP reporter by TRIM5α v1-loop variants in CRFK cells. Human variants: read share among cells still uninfected after two challenges over input, higher = gained restriction. Rhesus variants: share among infected cells over input, higher = lost restriction. Reporter dose not given per row. No active / inactive call per row; the paper calls a change when both replicates lie above its controls (mean + 2 SD of stop or wild-type variants, or the top frameshift score). Residues outside the varied loop are taken from Swiss-Prot. The paper reads the human single-substitution scores as noise; they and the rhesus combinations repeat poorly (rank correlation 0.3 to 0.4), indel scores repeat only for the top variants, rhesus substitutions well (0.9).

System: SIVsab (simian immunodeficiency virus of sabaeus monkeys), single-cycle GFP reporter, in CRFK cells
Test: enrichment among uninfected cells over input (fold); higher = stronger restriction
Method: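 Pools of CRFK cells expressing variants of the TRIM5α v1 loop were challenged with the single-cycle reporter, sorted by GFP and sequenced; mean of two replicates.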

[1] = library: human / rhesus combinations
[2] = library: insertions and deletions

| Sequence | enrichment [1] | enrichment [2] |
| --- | --- | --- |
| MASGILVNVKEEVTCPICLELLTQPLSLDCGHSFCQACLTANHKKSMLDKGESSCPVCRISYQPENIRPNRHVANIVEKLREVKLSPEGQKVDHCARHGEKLLLFCQEDGKVICWLCERSQEHRGHHTFLTEEVAREYQVKLQAALEMLRQKQQEAEELEADIREEKASWKTQIQYDKTNVLADFEQLRDILDWEESNELQNLEKEEEDILKSLTNSETEMVQQTQSLRELISDLEHRLQGSVMELLQGVDGVIKRTENVTLKKPETFPKNQRRVFRAPDLKGMLEVFRELTDVRRYWVDVTVAPNNISCAVISEDKRQVSSPKPQIIYQARGTLYTFPSFVNFNYCTGILGSQSITSGKHYWEVDVSKKTAWILGVCAGFQPDAMCNIEKNENYQPKYGYWVIGLEEGVKCSAFQDSSFHTPSVPFIVPLSVIICPDRVGVFLDYEACTVSFFNITNHGFLIYKFSHCSFSQPVFPYLNPRKCGVPMTLCSPSS [human TRIM5α, 330-340 = QARGTLYTFPSFV] | 1.15 ± 0.27 |  |
| MASGILVNVKEEVTCPICLELLTQPLSLDCGHSFCQACLTANHKKSMLDKGESSCPVCRISYQPENIRPNRHVANIVEKLREVKLSPEGQKVDHCARHGEKLLLFCQEDGKVICWLCERSQEHRGHHTFLTEEVAREYQVKLQAALEMLRQKQQEAEELEADIREEKASWKTQIQYDKTNVLADFEQLRDILDWEESNELQNLEKEEEDILKSLTNSETEMVQQTQSLRELISDLEHRLQGSVMELLQGVDGVIKRTENVTLKKPETFPKNQRRVFRAPDLKGMLEVFRELTDVRRYWVDVTVAPNNISCAVISEDKRQVSSPKPQIIYGARGTRNFNYCTGILGSQSITSGKHYWEVDVSKKTAWILGVCAGFQPDAMCNIEKNENYQPKYGYWVIGLEEGVKCSAFQDSSFHTPSVPFIVPLSVIICPDRVGVFLDYEACTVSFFNITNHGFLIYKFSHCSFSQPVFPYLNPRKCGVPMTLCSPSS [human TRIM5α, 5-codon deletion at 336] |  | 0.625 ± 0.45 |
| MASGILVNVKEEVTCPICLELLTQPLSLDCGHSFCQACLTANHKKSMLDKGESSCPVCRISYQPENIRPNRHVANIVEKLREVKLSPEGQKVDHCARHGEKLLLFCQEDGKVICWLCERSQEHRGHHTFLTEEVAREYQVKLQAALEMLRQKQQEAEELEADIREEKASWKTQIQYDKTNVLADFEQLRDILDWEESNELQNLEKEEEDILKSLTNSETEMVQQTQSLRELISDLEHRLQGSVMELLQGVDGVIKRTENVTLKKPETFPKNQRRVFRAPDLKGMLEVFRELTDVRRYWVDVTVAPNNISCAVISEDKRQVSSPKPQIIYGARGTRYQTFVNFNYCTGILCTGILGSQSITSGKHYWEVDVSKKTAWILGVCAGFQPDAMCNIEKNENYQPKYGYWVIGLEEGVKCSAFQDSSFHTPSVPFIVPLSVIICPDRVGVFLDYEACTVSFFNITNHGFLIYKFSHCSFSQPVFPYLNPRKCGVPMTLCSPSS [human TRIM5α, 5-codon duplication at 345] |  | 0.346 ± 0.44 |
| MASGILVNVKEEVTCPICLELLTQPLSLDCGHSFCQACLTANHKKSMLDKGESSCPVCRISYQPENIRPNRHVANIVEKLREVKLSPEGQKVDHCARHGEKLLLFCQEDGKVICWLCERSQEHRGHHTFLTEEVAREYQVKLQAALEMLRQKQQEAEELEADIREEKASWKTQIQYDKTNVLADFEQLRDILDWEESNELQNLEKEEEDILKSLTNSETEMVQQTQSLRELISDLEHRLQGSVMELLQGVDGVIKRTENVTLKKPETFPKNQRRVFRAPDLKGMLEVFRELTDVRRYWVDVTVAPNNISCAVISEDKRQVSSPKPQIIYQARGTRFTFPTFTNFNYCTGILGSQSITSGKHYWEVDVSKKTAWILGVCAGFQPDAMCNIEKNENYQPKYGYWVIGLEEGVKCSAFQDSSFHTPSVPFIVPLSVIICPDRVGVFLDYEACTVSFFNITNHGFLIYKFSHCSFSQPVFPYLNPRKCGVPMTLCSPSS [human TRIM5α, 330-340 = QARGTRFTFPTFT] | 0.116 ± 0.057 |  |
